Hit rate of the full screen: of about 110,000 compounds, about 230 (0.21%) showed an effect of 50% or more. This is one part of the list.
Each compound was assayed against DPAP1 (Plasmodium falciparum, UniProt Q8IIJ9) (assay: primary screen, percent inhibition; read by cleavage of a fluorogenic dipeptide substrate; higher = more effect of the substance).
Design: species or system P. falciparum D10 trophozoite lysates; single well
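Also: 30 min substrate incubation versus DMSO and 10 µM JCP410 controls.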

Sequence of DPAP1 (Q8IIJ9 whole entry, looked up): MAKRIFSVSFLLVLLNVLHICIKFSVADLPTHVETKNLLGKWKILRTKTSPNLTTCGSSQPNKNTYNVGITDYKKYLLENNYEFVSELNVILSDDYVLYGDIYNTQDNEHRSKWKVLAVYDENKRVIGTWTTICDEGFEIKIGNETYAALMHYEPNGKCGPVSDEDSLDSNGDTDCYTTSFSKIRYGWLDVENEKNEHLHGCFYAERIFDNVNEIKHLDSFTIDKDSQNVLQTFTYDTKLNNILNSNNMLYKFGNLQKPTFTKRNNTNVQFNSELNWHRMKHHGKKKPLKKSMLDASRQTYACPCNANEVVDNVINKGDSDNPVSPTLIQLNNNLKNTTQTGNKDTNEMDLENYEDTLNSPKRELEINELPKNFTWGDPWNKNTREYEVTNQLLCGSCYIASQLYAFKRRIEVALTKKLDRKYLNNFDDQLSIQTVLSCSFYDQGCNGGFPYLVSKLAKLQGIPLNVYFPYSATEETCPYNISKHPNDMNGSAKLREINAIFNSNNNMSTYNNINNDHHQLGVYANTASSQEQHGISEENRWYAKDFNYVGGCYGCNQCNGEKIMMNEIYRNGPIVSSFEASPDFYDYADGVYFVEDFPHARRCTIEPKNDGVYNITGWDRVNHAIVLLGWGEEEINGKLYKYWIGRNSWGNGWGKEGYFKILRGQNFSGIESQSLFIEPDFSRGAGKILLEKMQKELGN

| SMILES | % Inhibition @ 10 uM |
| --- | --- |
| Cc1c(C)n(C(=O)CN2CCN(Cc3ccc4c(c3)OCO4)CC2)c2ccccc12 | -4.51% |
| O=C(Nc1ccccc1C(F)(F)F)Nc1cccc2ccccc12 | -2.18% |
| CCCCSc1nc2ccc(N3C(=O)c4ccccc4C3=O)cc2s1 | 3.83% |
| CC12CCC(C(=O)O)(c3nc4cc(Cl)c(Cl)cc4nc31)C2(C)C (stereo not shown) | 3.67% |
| Cc1nc2sc3c(c2c(=O)o1)CCCCC3 | -1.59% |
| Cc1cc(/C=C2/SC(=O)NC2=O)c(C)n1-c1ccc(Br)cc1 | 19.3% |
| CCOCCO/C(O)=C1\C(C)=NC2=C(C(=O)CC(C)(C)C2)C1c1cccc(OC)c1 (stereo not shown) | -1.03% |
| COc1ccc(NC(=O)c2ccccc2F)cc1OC | -2.36% |
| Cc1sc(NC(=O)CCCC(=O)O)nc1-c1ccccc1 | -2.87% |
| COc1ccc2nc(NC(=O)CN(C)S(=O)(=O)c3ccc4nc(C)sc4c3)sc2c1 | 4.33% |
| C#CCSc1nc2c(c(=O)n1-c1ccc(C)cc1)C1(CCCC1)Cc1ccccc1-2 | 1.27% |
| Cc1ccc(-c2cc(C(=O)Nc3ccc(S(N)(=O)=O)cc3)c3ccccc3n2)cc1C | -3.45% |
| CCOC(=O)N1CCN(c2nc(-c3ccc(OC)cc3)cc(C(F)(F)F)n2)CC1 | 3.97% |
| CCSCCOC(=O)C1=C(C)NC(=O)CC1c1ccc(Cl)cc1Cl (stereo not shown) | 2.54% |
| CC1CN(C(=O)Cn2cc(S(=O)(=O)Cc3ccc(C(F)(F)F)cc3)c3ccccc32)CC(C)O1 (stereo not shown) | -2.55% |
| CCn1cc(/C=C(\NC(=O)c2ccccc2)C(=O)N2CCOCC2)c2ccccc21 | -3.52% |
| O=C(c1cc(=O)c2cc(Cl)ccc2o1)N(Cc1ccccc1)Cc1ccco1 | -3.24% |
| COc1cc2nc(N3CCNCC3)nc(N)c2cc1OC | -0.424% |
| COc1ccc(C(=O)c2ccc(OC)c(N)c2)cc1N | -4.58% |
| CCCN(CCC)C(=O)Cn1c(=O)n(Cc2ccccc2)c(=O)c2c3c(sc21)CN(C(C)=O)CC3 | 3.32% |
| CCc1cccc(C)c1NC(=O)COc1ccc(Cl)cc1Cl | -3.67% |
| CCOC(=O)c1ccc(CN(CC)CC)cc1 | -5.51% |
| Cc1ccc(S(=O)(=O)c2nc(S(C)(=O)=O)sc2NCc2ccc3c(c2)OCO3)cc1 | 2.76% |
| CCN(CC)CC/N=c1\c(N)c(O)oc2ccccc12 | -0.687% |
| COc1ccccc1OCCn1cc(C(=O)O)c2ccccc21 | 5.5% |

| SMILES | % Inhibition @ 10 uM |
| --- | --- |
| CCc1cc2c(=O)c(-c3ccc4c(c3)OCCCO4)c(C)oc2cc1OCC#N | 0.528% |
| CCN(CC)C(=O)Cn1ncc2c3ccccc3n(C)c2c1=O | -7.36% |
| CCOC(=O)N1CCN(C(=O)CSc2nnc(CNC(=O)c3cccs3)o2)CC1 | -3.62% |
| Cc1cc(C)n(C(=O)c2cccc(F)c2F)n1 | 3.16% |
| Oc1ccccc1Nc1nc(N2CCOCC2)c2ccccc2n1 | -4.49% |
| O=C(O)CCc1ccc(-c2ccc(F)cc2)n1CC1CCCO1 (stereo not shown) | -0.0678% |
| Cc1cc(Cl)ccc1OCCCC(=O)NCc1ccncc1 | -7.56% |
| N#CCNC(=O)C(CC1CCCCC1)C(=O)Nc1cccnc1 (stereo not shown) | -0.214% |
| COc1ccc(CNC(=O)c2cc3c(O)nc4ccc(C)cc4c3s2)cc1 | 1.72% |
| CCOc1ccccc1CNC(=O)C(CC)n1nc(CC)n2c(cc3oc(C)cc32)c1=O (stereo not shown) | -5.87% |
| CCOc1ccc(N2CC(C(=O)Nc3ccc(CC)cc3)CC2=O)cc1 (stereo not shown) | 2.44% |
| C=Cc1ccc(Cn2c(=O)cc(C)c3c(C)nn(-c4cccc(F)c4)c32)cc1 | 0.0855% |
| CC(=O)c1cc(-c2ccccc2)n(CC(=O)N2CCC(Cc3ccccc3)CC2)c1C | 1.47% |
| O=C(O)c1cc(S(=O)(=O)N2CCCCC2)c(Cl)cc1Cl | -0.546% |
| CN1C(=O)N(C)C2(CC1(C)C)CC(C)(C)N(C)C(=O)N2C | -3.27% |
| O=C(CCC1COc2ccccc2O1)Nc1ncccc1O (stereo not shown) | -5.41% |
| CCn1nc(-c2ccccc2C)nc2c(=O)n(C)c(=O)nc1-2 | 6.58% |
| CC(C)(C)c1ccc(C(=O)Nc2ccccc2O)cc1 | -2.09% |
| COc1ccccc1CNC(=O)C1c2ccccc2C(=O)N(C2CCCC2)C1c1cccs1 (stereo not shown) | 0.0281% |
| Cc1ccc2c(c1)c1c3n2CCCN=C3CCC1 | 3.05% |
| O=C1c2n[nH]c(-c3ccccc3O)c2C(c2ccc(Cl)cc2)N1Cc1ccncc1 (stereo not shown) | 6.34% |
| O=C(Cn1ccc2cc(S(=O)(=O)N3CCCCC3)ccc21)NCCc1c[nH]c2ccccc12 | 12.4% |
| CCOC(=O)N1CCC(NC(=O)C2CCCN(S(=O)(=O)c3cccnc3)C2)CC1 (stereo not shown) | -2.83% |
| COc1ccc(N2C(=O)/C(=C\c3ccoc3)C(=O)NC2=S)cc1 | 8.27% |

From article PMC6919601, “Identification of Plasmodium dipeptidyl aminopeptidase allosteric inhibitors by high throughput screening” (PLoS ONE, 2019)
